From PubChem BioAssay AID1508624 (National Center for Advancing Translational Sciences (NCATS), 2021)
Out of some 48,000 compounds screened, about 120 (0.25%) were called active. Another 4% or so got no clear call; they are omitted. The call rests on the fitted dose curve; in most records, active means well fitted activation curve with a large enough effect; inconclusive means small, poorly fitted or top-dose-only effect, or another doubt; inactive means no such curve, though single readings can be large or run the other way. The list shows a part of the results.

Assay: Primary qHTS for Identification of Small Molecule Activators of Huntingtin-Antisense Promoter Activity; further: nearly all actives have a fitted effect of over 55% in size
Conditions: HEK293 HTT-AS promoter firefly luciferase reporter (activity 0% = vehicle and -100% = no light), 24 h; series mostly up to 57.5 µM; activity change, positive = activation: at the top concentration
How it was run: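 HEK293 luciferase promoter-reporter cells (2,500/well) plated 24 h, then compounds added at up to 57.5 uM final for 24 h at 37 °C. Firefly luminescence by Dual-Glo, normalized to vehicle (0%) and zero RLU (-100%).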

Activity change, positive = activation, inactive:
COc1ccccc1CNc1nccn(-c2ccc(F)cc2)c1=O 0.108%
CCCn1c2ccccc2c2cnn(CC(=O)NCC3CCN(Cc4ccccc4C)CC3)c(=O)c21 -25.9%
COC(=O)CN1C(=O)C(O)(c2c(C)[nH]c3ccccc23)c2ccccc21 (stereo not drawn) -15%
Cc1csc2nc(COc3ccc(NC(=O)c4ccccc4F)cc3)cc(=O)n12 -17.6%
COc1ccc(C(=O)Nc2nc(-c3ccc(Br)cc3)ns2)cc1 -23.9%
Cc1nn(Cc2ccccc2Cl)c(C)c1CN(C)CC(O)COc1ccc(Cl)cc1 (stereo not drawn) -16.7%
Cc1ccc(N(CC(=O)Nc2ccc(F)cc2F)S(=O)(=O)c2cccs2)cc1 -30.5%
CCC(=O)C1=C(c2ccccc2)N(C(=O)CC)n2c(nnc2-c2ccccc2)S1 -12.3%
Cc1ccc(S(=O)(=O)NCCc2nnc3ccc(SCc4ccccc4F)nn23)cc1 -18.6%
O=C(COc1ccccc1F)Nc1nnc(SCc2cc(=O)n3ccccc3n2)s1 -5.92%
CCOC(=O)c1cc2c(=O)n3ccccc3nc2n(CC2CCCO2)c1=NC(=O)c1cccc(C)c1 (stereo not drawn) 0%
Cc1ccccc1Cn1nnc2sc3c(c2c1=O)CCCC3 -3.71%
CCOC(=O)c1c(NC(=O)Nc2ccc(F)cc2)sc(C(=O)N(C)C)c1C -11.1%
COc1ccc(CCNC(=O)c2ccc3c(c2)N(Cc2ccccc2Cl)C(=O)c2ccccc2S3)cc1OC -14.4%
Cn1cc(CCCC(=O)NCc2cccc(Br)c2)c2ccccc21 -16.7%
COc1ccc(-c2cccc(NS(=O)(=O)c3cc(C(F)(F)F)ccc3Cl)c2)nn1 -26.2%
CCc1nc2ccc(C(=O)NCc3ccccc3C)cc2nc1CC 7.39%
O=c1c(NCc2cccs2)nccn1-c1ccccc1 24.6%
CN=C(N)NC(=O)Nc1c(C)cccc1C -6.53%
COc1ccc(-n2cc(-c3ccccc3)c3c(N4CCCC(C)C4)ncnc32)cc1 (stereo not drawn) -6.84%
Cc1ccc(CN2c3ccccc3-c3nc(SCC(=O)NCc4ccccc4)ncc3S2(=O)=O)cc1 -5.97%
O=C(CS(=O)(=O)c1cccc2nsnc12)NCc1ccccc1Cl -3.39%
COc1ccc(C(=O)NCCc2csc(-c3ccc(Cl)cc3)n2)cc1 -18.7%
CCC(Oc1ccc(F)cc1)C(=O)Nc1nc2c(s1)CCCC2 (stereo not drawn) -10.1%
CCc1ccc(-c2cc(C)no2)cc1S(=O)(=O)NCc1ccco1 -22.9%
O=C(c1cncc(Br)c1)N1CCC(N2CCCC2)CC1 -0.646%
Cc1cnc(C(=O)O)c[n+]1[O-] -4.59%
COc1ccc(C2=N[C@H](c3ccc(Cl)cc3)[C@H](c3ccc(Cl)cc3)N2C(=O)N2CCNC(=O)C2)c(OC(C)C)c1 -17%
COc1ccc(C(=O)N2c3nc(-c4ccco4)nn3C3(CCCCC3)[C@@H]3CCCC[C@@H]32)cc1OC -26.8%
CC(=O)Nc1cccc(O)c1 -3.7%
Cc1cccc(C(=O)N2CCCCC2CCN2CCCCC2)c1 (stereo not drawn) -2.49%
O=C(Nc1ccc(F)cc1)c1oc2ccccc2c1NC(=O)C1CCCCC1 -6.86%
O=C(NC1CCCCC1)c1ccc(Cn2c(SCc3ccccc3)nc3cccnc32)cc1 -5.82%
CCCCCCc1cc2cc(-c3nnc(-c4cccc(Cl)c4)o3)c(=O)oc2cc1O -14%
Cc1ccc(NC(=O)c2oc3ccc(S(=O)(=O)N4CCCCC4)cc3c2C)c(C)c1 0%
Cc1cccc(N2CCN(C(=O)C(C)n3nc(C)n4c(cc5occc54)c3=O)CC2)c1C (stereo not drawn) -13.9%
Cc1cc(C)c(NC(=O)c2c(C)oc3c2C2=NCCN2C=N3)c(C)c1 2.5%
Cc1cc(C)c(NC(=O)CN2C(=O)C3(SCC(=O)N3c3ccc(F)cc3)c3ccccc32)c(C)c1 (stereo not drawn) -25.6%
CCc1ccc(CNC(=O)Cn2nc(-c3ccc(Cl)cc3)ccc2=O)cc1 -33%
COc1ccc(C2c3c(n(C)c4ccccc34)C(=O)N2CC(=O)Nc2ccc(C)cc2Cl)cc1 (stereo not drawn) -25.8%
CCN(CC)S(=O)(=O)c1ccc(-c2csc(=Nc3cccc(C(F)(F)F)c3)n2Cc2ccc3c(c2)OCO3)cc1 -16.7%
CCOC(=O)C1=C(O)C(=O)N(Cc2ccccc2)C1 -6.82%
O=c1c(O)c(-c2ccc(O)c(O)c2)oc2cc(O)cc(O)c12
Cc1ccc(S(=O)(=O)N2CCCc3cc(NS(=O)(=O)c4ccc(F)cc4)ccc32)cc1 -38.8%
CN(C)c1ccc(CNC(=O)C2CCN(S(=O)(=O)c3ccc4c(c3)oc(=O)n4C)CC2)cc1 -6.63%
COc1cccc(NC(=O)Cn2c(=O)n(Cc3ccc(C(=O)NCc4ccc5c(c4)OCO5)cc3)c(=O)c3ccccc32)c1 -5.32%
Nc1c(C(=O)NCCc2ccccc2)nnn1CC(=O)Nc1ccc(Cl)cc1 -6.54%
O=C(CSc1nc2c([nH]c3ccccc32)c(=O)n1-c1ccccc1)c1ccc(Cl)cc1 -3.56%
COc1cc(NS(=O)(=O)c2ccc3[nH]c4c(c3c2)CCCC4)cc(OC)c1OC -55.4%
C=Cc1ccc(Cn2c(C(=O)O)c(CNCCc3ccccc3)c3ccc(C)cc32)cc1 -47.7%
CCCn1c(CCC(=O)Nc2cccc(C)c2C)nc2cccnc21 -19.4%
Cc1ccccc1OCCCCn1c(C2CC(=O)N(c3ccccc3Cl)C2)nc2ccccc21 (stereo not drawn) -34.3%
CCOC(=O)C1CCCN(c2c(C(=O)c3ccc(C)cc3)cnc3ccc(OCC)cc23)C1 (stereo not drawn) -32.5%
COc1ccc(CC(=O)Nc2ccc3nc(Nc4cccc(Cl)c4)cc(C)c3c2)cc1 -44.2%
Cc1ccc(Nc2c(-c3ccc(N4CCOCC4)cc3)nc3c(C)cccn23)cc1 -4.04%
O=C(O)C1(C(=O)O)CCC1.[NH2-].[NH2-].[Pt+2] -4.92%
COCCCn1c(=O)c2sccc2n2c(CCCC(=O)Nc3ccc(F)c(F)c3)nnc12 -20.6%
Cc1ccc2nc(NC(=O)c3ccc(S(=O)(=O)N4CCCc5ccccc54)cc3)sc2c1 -34.8%
COc1ccc(CNC(=O)CCC2N=C3c4ccccc4N=C(SCc4ccc(F)cc4)N3C2=O)cc1 (stereo not drawn) 2.82%
O=C(C1CCCCC1)N(Cc1cccnc1)c1nc2c(F)cc(F)cc2s1 -14.3%
COc1ccc(OC)c(NC(=O)c2c(NCc3ccc(OC)c(OC)c3)sc3c2CCC(C)C3)c1 (stereo not drawn) -27%
CCN1CCOC(=O)C1CC(=O)Nc1ccc(C)c(Cl)c1 (stereo not drawn) -14.1%
Nc1c(C(=O)Nc2cccc(F)c2)sc2nc(-c3cccs3)ccc12 12%
